Source: the supplement of paper PMC4967469
pIC50: −log10 of the molar value. By IC50 is meant the dose at which the fit gives 50% viability; where the fit passes the top or lowest dose, that dose stands as a limit. For AUC the same curve is integrated over the 256-fold range of doses and scaled to a fraction; the more sensitive the line, the further below 1. For some assays here: Any top dose called inferred was derived from the fitted curves, not read from the paper. For some assays here: Where an entry number is given, a second screen of the drug exists; the two often differ.

What was measured:
Test in all cases: Viability of human cancer cell lines after 72 h of drug (GDSC screen)
PLX4720 = compound: CCCS(=O)(=O)Nc1ccc(F)c(C(=O)c2c[nH]c3ncc(Cl)cc23)c1F [PLX4720]; details: top dose 10 µM
Experimental: (§1)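 Human cancer cell lines in 384-well plates, medium with 10% serum, drug for 72 h over a 256-fold dose range (nine 2-fold or five 4-fold steps up to the top dose). Adherent lines were fixed and stained with the nucleic acid dye Syto60, suspension lines read with resazurin; signal relative to control wells, capped at 0 and 100%. One two-parameter sigmoid per drug and line, fitted in a mixed model over all curves with the slope shared within a line.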

Pyrimethamine = compound: CCc1nc(N)nc(N)c1-c1ccc(Cl)cc1 [Pyrimethamine]; details: top dose 20 µM; top dose inferred
Experimental: as §1

PHA-793887 = compound: CC(C)CC(=O)Nc1n[nH]c2c1CN(C(=O)C1CCN(C)CC1)C2(C)C [PHA-793887]; details: top dose 10.24 µM
Experimental: as §1

Imatinib = compound: Cc1ccc(NC(=O)c2ccc(CN3CCN(C)CC3)cc2)cc1Nc1nccc(-c2cccnc2)n1 [Imatinib]; details: top dose 2 µM
Experimental: as §1

Y-39983 = compound: C[C@@H](N)c1ccc(C(=O)Nc2ccnc3[nH]ccc23)cc1 [Y-39983]; details: top dose 20 µM; top dose inferred
Experimental: as §1

Epothilone B = compound: C/C(=C\c1csc(C)n1)[C@@H]1C[C@@H]2O[C@]2(C)CCC[C@H](C)[C@H](O)[C@@H](C)C(=O)C(C)(C)[C@@H](O)CC(=O)O1 [Epothilone B]; details: top dose 0.032 µM; top dose inferred
Experimental: as §1

TPCA-1 = compound: NC(=O)Nc1sc(-c2ccc(F)cc2)cc1C(N)=O [TPCA-1]; details: top dose 20 µM
Experimental: as §1

AZD-0530 = compound: CN1CCN(CCOc2cc(OC3CCOCC3)c3c(Nc4c(Cl)ccc5c4OCO5)ncnc3c2)CC1 [AZD-0530]; details: top dose 2 µM
Experimental: as §1

[1] = screen: GDSC drug entry 1371, top dose inferred

| Cell Line | AUC (PLX4720; screen: GDSC drug entry 1036) | pIC50 (PLX4720; screen: GDSC drug entry 1036) | AUC (PLX4720; [1]) | pIC50 (PLX4720; [1]) | AUC (Pyrimethamine) | pIC50 (Pyrimethamine) | AUC (PHA-793887) | pIC50 (PHA-793887) | AUC (Imatinib) | pIC50 (Imatinib) | AUC (Y-39983) | pIC50 (Y-39983) | AUC (Epothilone B) | pIC50 (Epothilone B) | AUC (TPCA-1) | pIC50 (TPCA-1) | AUC (AZD-0530) | pIC50 (AZD-0530) |
| --- | --- | --- | --- | --- | --- | --- | --- | --- | --- | --- | --- | --- | --- | --- | --- | --- | --- | --- |
| NB14 (neuroblastoma, adherent) | 0.985 | < 5.00 | 0.982 | < 5.00 | 0.913 | < 4.70 | 0.959 | < 4.99 | 0.984 | < 5.70 | 0.769 | 5.15 | 0.676 | 8.22 | 0.642 | 5.52 | 0.978 | < 5.70 |
| NCI-H187 (small cell lung carcinoma, suspension) | 0.974 | < 5.00 | 0.986 | < 5.00 | 0.939 | < 4.70 | 0.749 | 5.45 | 0.984 | < 5.70 | 0.977 | < 4.70 | 0.986 | < 7.49 | 0.912 | < 4.70 | 0.987 | < 5.70 |
| NCI-H209 (small cell lung carcinoma, suspension) | 0.797 | 5.29 | 0.85 | 5.07 | 0.751 | 5.16 | 0.711 | 5.58 | 0.984 | < 5.70 | 0.896 | < 4.70 | 0.821 | 7.69 | 0.623 | 5.55 | 0.978 | < 5.70 |
| NCI-H446 (small cell lung carcinoma, semi-adherent) | 0.976 | < 5.00 | 0.857 | 5.04 | 0.945 | < 4.70 | 0.634 | 5.81 | 0.984 | < 5.70 | 0.887 | < 4.70 | 0.849 | 7.57 | 0.772 | 5.08 | 0.969 | < 5.70 |
| NCI-H1436 (small cell lung carcinoma, suspension) | 0.965 | < 5.00 | 0.973 | < 5.00 | 0.984 | < 4.70 | 0.9 | < 4.99 | 0.813 | 5.90 | 0.947 | < 4.70 | 0.746 | 7.94 | 0.774 | 5.05 | 0.786 | 6.00 |
| NCI-H1694 (small cell lung carcinoma, suspension) | 0.986 | < 5.00 | 0.988 | < 5.00 | 0.986 | < 4.70 | 0.905 | < 4.99 | 0.971 | < 5.70 | 0.971 | < 4.70 | 0.884 | < 7.49 | 0.938 | < 4.70 | 0.959 | < 5.70 |
| NCI-H2081 (small cell lung carcinoma, suspension) | 0.987 | < 5.00 | 0.988 | < 5.00 | 0.985 | < 4.70 | 0.928 | < 4.99 | 0.984 | < 5.70 | 0.986 | < 4.70 | 0.852 | 7.57 | 0.908 | < 4.70 | 0.989 | < 5.70 |
| NCI-H2135 (non-small cell lung carcinoma, adherent) | 0.99 | < 5.00 | 0.99 | < 5.00 | 0.989 | < 4.70 | 0.804 | 5.31 | 0.99 | < 5.70 | 0.924 | < 4.70 | 0.831 | 7.71 | 0.821 | 4.95 | 0.99 | < 5.70 |
| NEC8 (testis, adherent) | 0.969 | < 5.00 | – | – | 0.54 | 5.80 | 0.597 | 5.95 | 0.99 | < 5.70 | 0.912 | < 4.70 | 0.608 | 8.42 | 0.751 | 5.24 | 0.991 | < 5.70 |
| NH-12 (neuroblastoma, adherent) | 0.981 | < 5.00 | – | – | 0.983 | < 4.70 | 0.969 | < 4.99 | 0.984 | < 5.70 | 0.959 | < 4.70 | 0.422 | 8.92 | 0.642 | 5.49 | 0.984 | < 5.70 |
| OCUB-M (breast, adherent) | 0.987 | < 5.00 | 0.975 | < 5.00 | 0.989 | < 4.70 | 0.666 | 5.76 | 0.99 | < 5.70 | 0.867 | 4.85 | 0.401 | 8.95 | 0.784 | 5.14 | 0.983 | < 5.70 |
| ONS-76 (medulloblastoma, adherent) | 0.974 | < 5.00 | 0.926 | < 5.00 | 0.804 | 4.96 | 0.468 | 6.28 | 0.984 | < 5.70 | 0.981 | < 4.70 | 0.594 | 8.43 | 0.887 | < 4.70 | 0.984 | < 5.70 |
| OVCAR-4 (ovary, adherent) | 0.956 | < 5.00 | 0.972 | < 5.00 | 0.686 | 5.27 | 0.855 | < 4.99 | 0.971 | < 5.70 | 0.969 | < 4.70 | 0.483 | 8.75 | 0.784 | 4.87 | 0.915 | < 5.70 |
| P30-OHK (lymphoblastic leukaemia, suspension) | 0.918 | < 5.00 | 0.949 | < 5.00 | 0.95 | < 4.70 | 0.29 | 6.74 | 0.99 | < 5.70 | 0.538 | 5.81 | 0.64 | 8.34 | 0.351 | 6.28 | 0.983 | < 5.70 |
| RCC10RGB (kidney, adherent) | 0.957 | < 5.00 | 0.934 | < 5.00 | 0.932 | < 4.70 | 0.971 | < 4.99 | 0.971 | < 5.70 | 0.853 | < 4.70 | 0.745 | 7.68 | 0.756 | 4.84 | 0.925 | < 5.70 |
